Measurements as given in PubChem BioAssay AID1347055 (National Center for Advancing Translational Sciences (NCATS), 2019).
“And” between values parts separate entries of the source, which are not always exact repeats. Equal values may be shown once. In all, about 54,000 compounds went through this assay and about 120 (0.22%) were called active. This list was built around the results that the source calls inconclusive (neither active nor inactive); the mix of calls is not that of the screen. The call rests on the fitted dose curve; in most records, active means well fitted inhibition curve with a large enough effect; inconclusive means small, poorly fitted or top-dose-only effect, or effect the other way; inactive means flat fitted curve, though single readings scatter. Potencies of inconclusive entries are doubtful fits and often do not repeat.

Molecular target: Fumarate hydratase, mitochondrial (Homo sapiens) (UniProt P07954)
UniProt P07954, sequence (P07954 whole entry, looked up): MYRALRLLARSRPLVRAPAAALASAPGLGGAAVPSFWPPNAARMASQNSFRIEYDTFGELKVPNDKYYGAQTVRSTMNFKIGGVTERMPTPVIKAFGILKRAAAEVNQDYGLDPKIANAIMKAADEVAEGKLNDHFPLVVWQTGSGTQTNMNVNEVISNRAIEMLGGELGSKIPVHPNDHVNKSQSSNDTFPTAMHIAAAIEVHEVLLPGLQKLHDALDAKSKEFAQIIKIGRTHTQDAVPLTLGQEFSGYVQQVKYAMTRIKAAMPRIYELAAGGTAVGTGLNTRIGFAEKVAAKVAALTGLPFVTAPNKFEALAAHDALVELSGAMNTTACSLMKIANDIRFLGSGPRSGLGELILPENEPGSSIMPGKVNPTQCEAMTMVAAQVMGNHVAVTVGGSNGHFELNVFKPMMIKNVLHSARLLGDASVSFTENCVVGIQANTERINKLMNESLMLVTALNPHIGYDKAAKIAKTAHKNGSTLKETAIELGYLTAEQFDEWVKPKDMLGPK
Assay: Identification of activators of human fumarate hydratase by quantitative high-throughput screening; further: the screen sought activators but most active calls are inhibition curves; nearly all actives have a fitted effect of over 45% in size
Details: FH coupled MDH/diaphorase resazurin fluorescence, 15 min; series mostly up to 79.9 µM
Potency means the concentration at half of the fitted maximal effect; tags describe the fitted curve by direction and shape.

SMILES	Potency
Cc1ccc(S(=O)(=O)N[C@@H](Cc2ccccc2)C(=O)CCl)cc1	inconclusive: 39.8 µM [inhibitor, single point]
COc1cc(/C=C/c2nc(C#N)c(NC(C)c3ccccc3)o2)cc(OC)c1OC (stereo not given)	inconclusive: 35.5 µM [inhibitor, single point]
COc1cc(NCc2ccc3nc(N)nc(N)c3c2C)cc(OC)c1OC	inconclusive: 19.3 µM [inhibitor, partial curve] and inconclusive: 12.3 µM [inhibitor, partial curve]
Cc1nn(C)c2c1c(C(F)(F)F)cc(=O)n2C(C)C(=O)N1CCN(c2ccccc2)CC1 (stereo not given)	inconclusive: 39.8 µM [inhibitor, partial curve, poor fit]
CCOC(=O)c1cc(-c2ccccc2)n(CCCC(=O)Nc2ccc(C)c(C)c2)c1C	inconclusive: 17.8 µM [inhibitor, partial curve, poor fit]
CC1=C(C(=O)Nc2ccccc2)C(c2ccccc2Cl)n2ncc(C(=O)Nc3cccc(C)c3)c2N1 (stereo not given)	inactive
COc1ccc(-c2nc(SCC(=O)Nc3cccc(C(C)=O)c3)n[nH]2)cc1	inconclusive: 1.41 µM [inhibitor, full curve]
CCc1ccc(NC(=O)c2oc3c(c2C)-c2[nH]ncc2CC3)cc1	inconclusive: 35.5 µM [inhibitor, single point]
Oc1ccc(Nc2nc(-c3ccc(Cl)cc3)nc3ccccc23)cc1	inconclusive: 31.6 µM [inhibitor, partial curve]
CC1=C(c2ccc(Cl)cc2)S(=O)(=O)NC1=NCc1ccc(C)cc1	inactive
O=C(CSc1nc2c(oc3ccccc32)c(=O)[nH]1)Nc1cccc(Cl)c1	inconclusive: 22.4 µM [inhibitor, partial curve, poor fit]
CCOC(=O)c1ccc(NC(=O)c2cc3c(n(-c4ccc(C)cc4)c2=O)CC(C)(C)CC3=O)cc1	inconclusive: 31.6 µM [inhibitor, single point]
Cc1ccc(-c2nnc(Nc3ccc(O)cc3)c3ccccc23)cc1S(=O)(=O)NCC1CCCO1 (stereo not given)	inconclusive: 25.1 µM [inhibitor, partial curve]
Cc1ccc(NC(=O)Cn2cc(S(=O)(=O)NC(C)C)c(S(=O)(=O)NC(C)C)c2)cc1Cl	inconclusive: 25.1 µM [inhibitor, partial curve, poor fit]
Cc1cc(C)c(S(=O)(=O)Nc2cccc(-c3cn4ccccc4n3)c2)c(C)c1	inconclusive: 44.7 µM [inhibitor, partial curve, poor fit]
